# From the supplement of paper PMC3334620
# Over roughly 33,000 sequences, “E-score (-0.5 to 0.5)” has its median near -0.054; the highest 2% begin near 0.35. The list shows a part of the results.
# Target: T1, Stb5 (UniProt P38699)
# T1 sequence: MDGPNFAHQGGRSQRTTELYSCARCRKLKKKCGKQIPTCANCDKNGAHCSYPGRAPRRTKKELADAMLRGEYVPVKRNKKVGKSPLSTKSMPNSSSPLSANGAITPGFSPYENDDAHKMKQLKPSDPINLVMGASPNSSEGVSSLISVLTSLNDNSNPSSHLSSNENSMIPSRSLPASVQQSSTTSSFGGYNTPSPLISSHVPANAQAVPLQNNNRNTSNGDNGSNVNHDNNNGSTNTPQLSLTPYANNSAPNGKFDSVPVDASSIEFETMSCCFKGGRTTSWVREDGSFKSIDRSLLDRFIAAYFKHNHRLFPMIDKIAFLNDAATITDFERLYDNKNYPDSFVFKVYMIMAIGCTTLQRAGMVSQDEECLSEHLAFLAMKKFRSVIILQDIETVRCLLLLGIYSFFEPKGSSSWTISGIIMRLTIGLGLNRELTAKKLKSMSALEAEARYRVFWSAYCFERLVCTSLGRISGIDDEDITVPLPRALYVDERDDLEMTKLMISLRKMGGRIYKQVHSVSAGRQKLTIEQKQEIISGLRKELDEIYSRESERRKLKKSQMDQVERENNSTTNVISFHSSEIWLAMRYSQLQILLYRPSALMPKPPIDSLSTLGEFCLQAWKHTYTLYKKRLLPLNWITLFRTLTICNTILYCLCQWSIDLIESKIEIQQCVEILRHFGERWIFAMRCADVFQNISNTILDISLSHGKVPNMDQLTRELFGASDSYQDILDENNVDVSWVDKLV
# Test: PBM E-score (8-mer binding enrichment) (E-score (-0.5 to 0.5)); higher = stronger / more preferred TF binding; most listed sequences are background and not binding sites
# Details: protein concentration: 200 nM; construct: GST-full length
# Procedure: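 Universal 'all 10-mer' protein binding microarrays (Agilent AMADID 015681) probed with GST-tagged S. cerevisiae TFs (full-length or DBD) made by in vitro transcription/translation (PURExpress), about 100-200 nM. Bound TF was detected with fluorescent anti-GST. Each ungapped 8-mer (which stands for itself and its reverse complement) is scored by the PBM enrichment score (E-score), a modified Wilcoxon-Mann-Whitney statistic from -0.5 to +0.5, computed with the Universal PBM Analysis Suite. Scale: above 0.35 generally sequence-specific binding.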
row,Sequence,PBM E-score
1,AACACGTG,-0.162
2,CTTTGTAC,-0.162
3,ATACCCAT,-0.148
4,TCTTGAAA,0.0338
5,CTAGGCCA,-0.0954
6,ACACAAGC,-0.169
7,TGACTTAA,-0.0219
8,AAATTCAA,0.009
9,CGAATCCC,0.136
10,ACACTACT,-0.0592
11,CATCCTAA,0.0742
12,AGGGTTAA,-0.179
13,CTGAGGAA,-0.157
14,GGTCTTGA,0.0653
15,CTGCTATC,-0.114
16,AATTCGGG,0.148
17,AAAGCCAG,-0.117
18,AAAACGCA,0.0671
19,ACAGAATG,-0.304
20,ACATTTGC,0.0209
21,GGCCGCTA,0.299
22,ACAACCCG,0.075
23,AATGGACC,0.164
24,ATAGTATC,0.139
25,AGCAAGTA,-0.25

row,Sequence,PBM E-score
1,ACCTGATG,-0.215
2,CGTTGGAC,-0.0247
3,ACGGTGGC,0.123
4,AAAGAAGA,-0.116
5,AACGCAGG,-0.0218
6,CCGGTATC,0.305
7,ACCCGGTG,0.276
8,ACGATGAA,0.0901
9,CAAATGGC,0.134
10,CGGTCTGC,0.145
11,AATTCCAT,-0.233
12,CGACGAAA,-0.08
13,GATAACCC,-0.0132
14,ATTGTCCC,0.0499
15,GACTTGGA,0.036
16,GGCCAAAA,-0.0706
17,AGATGCGG,0.117
18,CCAACCTA,-0.0471
19,CACCATAG,-0.221
20,CATAACAC,0.0801
21,CATCTCAG,-0.25
22,CATGCAAA,-0.0617
23,ACGACACC,0.148
24,CAGCTGCG,0.0512
25,CTATCGAA,-0.0224

row,Sequence,PBM E-score
1,ACGCGGAA,0.0896
2,AACCACCG,0.406
3,GTACTTCA,0.00797
4,ACCGTAGA,0.1
5,AAGGGCGG,0.338
6,CGTACACG,-0.0438
7,AGCACTCA,-0.186
8,CATCATCA,-0.0917
9,GACATTTA,0.242
10,CTACATTC,-0.109
11,GGAAAACC,-0.171
12,GCCCGTCA,0.244
13,ATTGGGAA,-0.0923
14,CTATTCCC,0.136
15,GACGTTCA,-0.138
16,GCGGCCCA,0.215
17,TGCTTTAA,0.0424
18,AATCCTGA,-0.254
19,CATGTTCA,-0.334
20,CCCTTACA,-0.0595
21,CCGAGTGC,0.133
22,CACGAATC,-0.0265
23,CGTATACA,-0.136
24,GAGCCCTA,-0.0868
25,ATCGTTCG,-0.0639

row,Sequence,PBM E-score
1,ATTAGTAA,0.174
2,GTTCTTGA,-0.228
3,GCGTCGAC,-0.12
4,CATCCATC,-0.172
5,CATGAGTC,-0.238
6,TAGAGCCA,-0.301
7,AATGAATC,-0.154
8,CACTTCTG,-0.0975
9,GCTACGAC,0.132
10,CACTAATC,0.129
11,AGCTGCTA,-0.207
12,CATTTTTA,0.183
13,CAGCGCGC,0.14
14,AACGACTC,-0.333
15,ACCGGCAG,0.277
16,CTGGAAAC,-0.182
17,GCTACACA,-0.166
18,AACCTAAA,0.0271
19,AGATGATA,-0.0731
20,CACACTTC,-0.124
21,CCCGTCAA,0.175
22,AGTAGACA,-0.0717
23,CATTGCCG,0.149
24,GAAGCAGA,-0.278
25,AAACAGCT,-0.127

row,Sequence,PBM E-score
1,GAAGCCAC,0.0166
2,GATGAATA,0.035
3,AGGTACGA,-0.0786
4,AGTGGGTG,-0.135
5,AACCCTGG,-0.284
6,CTTTTTGA,-0.162
7,CCTTGACA,-0.071
8,ACTTAGCC,0.00833
9,AATGTGTG,-0.103
10,CGCTGTTA,0.445
11,ACATATCT,0.0384
12,GTGTCGAA,-0.0704
13,CCACCACA,-0.0405
14,AACAAAGG,-0.0741
15,CCGACTTA,0.324
16,AGCAGGAG,-0.0573
17,ATTGTGTA,-0.0965
18,AGAGTCAG,-0.1
19,AGCGCCCC,-0.0902
20,CACGCTCG,-0.169
21,CTTTGTTA,0.0345
22,AGTGCAAA,-0.106
23,ACCCGTCA,0.226
24,ATTATGAC,0.103
25,CGGGACCC,0.111

row,Sequence,PBM E-score
1,CTTGAGGA,-0.186
2,CACGATCG,0.0415
3,AATGGGAC,-0.0748
4,GTGAGCAC,-0.0695
5,CAGGTGCA,-0.191
6,CAAATCGG,0.303
7,CAACATAA,-0.00782
8,ACCCTTAC,-0.0493
9,CGATAAAA,0.254
10,CCTCAGGC,-0.018
11,CTTTCAAC,-0.123
12,AACCTTGC,-0.0575
13,AGGGTTAG,-0.234
14,CGGACTCC,0.231
15,GTCGTCCA,-0.072
16,ACATATGA,-0.1
17,AAGACCGG,0.418
18,CGGTGAAC,0.177
19,ACGTCACA,-0.197
20,CAGCTAGG,-0.139
21,CACGTCTG,-0.156
22,CGATATAG,0.0794
23,GCGGAACA,0.238
24,GGGCGACC,-0.202
25,AAATACAC,-0.107

row,Sequence,PBM E-score
1,CAACTGCA,-0.355
2,CTCTTCAG,-0.0718
3,GAAGTGGC,-0.159
4,CCTACGGA,0.214
5,GCCGTTTA,0.212
6,CGTTTGTA,0.0345
7,ATGTTCAC,-0.207
8,AGGCGCTG,0.0509
9,CCGACATC,0.252
10,GAGAATCA,-0.104
11,TATCCGCA,0.174
12,GATGTCAA,0.017
13,ATTCCAGA,0.0258
14,CATGGGGA,-0.091
15,CATGCTCC,-0.216
16,AGTGCGGG,0.151
17,AGTACTAG,-0.307
18,TGGAAAAA,-0.00409
19,CGACCAAG,-0.148
20,CTTTTGAC,-0.0853
21,AGAACAGA,-0.0903
22,AGGGAATA,0.0674
